The values that follow come from PubChem BioAssay AID1963576 (National Center for Advancing Translational Sciences (NCATS), 2024).

Out of some 46,000 compounds screened, about 60 (0.1%) were called active. Another 3% or so got no clear call; they are omitted. Calls follow the shape of the dose curve; as a rule, active = well fitted inhibition curve with a large enough effect; inconclusive = small, poorly fitted or top-dose-only effect; inactive = no such curve, though single readings can be large or run the other way. Some of the results follow.

This assay can be described thus: Primary qHTS assay for Inhibitors of ovarian cancer metastasis using an organotypic tumor microenvironment (TME) model. Also: nearly all actives have a fitted effect of over 65% in size.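 As to activity change, negative = inhibition: plate controls were DMSO wells for no effect and tomatine positive control wells for full effect.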 Conditions: SKOV3ip1-GFP adhesion/invasion on 3D omental model, fluorescence; series mostly up to 45.8 µM; activity change, negative = inhibition: at the top concentration. The procedure, abridged: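 qHTS, 4-pt dose (0.36-46 umol/L); SKOV3ip1-GFP, 1,200 cells/well, no FBS; primary omental fibroblast/mesothelial co-culture 48 h pre-grown; 2 h RT + 16 h 37 C; PBS wash, 4% PFA; GFP count 488/509 nm.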
For orientation: qHTS replaces the single test concentration by a dilution series.
With `COc1ccc(Br)cc1CNC(=O)CCCn1c(=O)c2cccn2c2cccnc21`, the outcome was inactive.
As for `COc1ccc(C2C=C(c3ccc(C)cc3)Nc3c(C(=O)Nc4ccccc4)cnn32)cc1` (stereo not drawn), the “activity change, negative = inhibition” value was inactive: -12%.
On the same count and under the same terms, the value for `CCCS(=O)(=O)c1c(S(=O)(=O)CCC)c2cc(C(C)(C)C)ccn2c1C(=O)c1ccc(OC)c(OC)c1` was inactive: -8.68%; that for `COc1ccccc1CNC(=O)c1cc2sccc2n1Cc1ccc(F)cc1` was inactive: -21.2%; that for `Cc1ccc(C)c(NC(=O)c2cc(S(=O)(=O)N3CCc4ccccc4C3)ccc2F)c1` was inactive: 7.72%.
The same measure, in the same setting: to `COc1ccccc1NC(=O)Cn1c(=O)n(-c2ccccc2Cl)c(=O)c2sc3ccccc3c21` belongs inactive: 4.62%; to `COCCCn1c(SCc2ccccc2F)nc2c(sc3ccccc32)c1=O`, inactive: -8.83%.
Same read-out and setting: the value for `CCc1cccc(NC(=O)Cn2c(C(=O)OC)cc3occc32)c1` was inactive: 9.09%.
As to `O=C(Cn1ncc2c3ccccc3n(Cc3ccccc3)c2c1=O)N1CCCCCC1`, the “activity change, negative = inhibition” value is inactive: -2.97%.
The same measure, in the same setting: the value for `COc1ccc(-c2noc(-c3ccccc3OCC(=O)Nc3ccc(C(C)=O)cc3)n2)cc1` was inactive: -3.18%.
As to `COc1ccc(CNC(=O)CCCCCn2c(=O)[nH]c3ccccc3c2=O)cc1`, the outcome was inactive.
Take `CCN(CC)S(=O)(=O)c1ccc2c(c1)N(CC(=O)Nc1ccc(F)cc1F)C(=O)C1CCCN21` (stereo not drawn): the “activity change, negative = inhibition” value was inactive: -12.5%.
Consider `Cc1ccc(CNc2ccc(-c3nc(-c4cccnc4)no3)cc2[N+](=O)[O-])cc1`, for which the call was inactive.
Same read-out and setting: the value for `CCOC(=O)c1[nH]c2ccccc2c1NC(=O)c1cc(Cl)ccc1Cl` was “inactive”.
With `CSc1cccc(Nc2ncc3cc(-c4c(Cl)cccc4Cl)c(=O)n(C)c3n2)c1`, the “activity change, negative = inhibition” value is inactive: -5.82%.
The same measure, in the same setting: to `Oc1cccc(-c2nc3ncccn3c2Nc2cccc(C(F)(F)F)c2)c1` belongs inactive: 5.23%; to `CCn1cc(C(=O)NCCc2ccc(Cl)cc2)c(=O)c2cc(S(=O)(=O)N3CCOCC3)ccc21`, inactive: -1.45%.
On the same count and under the same terms, to `CCOC(=O)c1[nH]c2ccccc2c1NC(=O)c1ccc(OC)c(OC)c1` belongs inactive: 0.872%; to `COc1cc(NC(=O)Cn2c(C)cc(C)c(C#N)c2=O)cc(OC)c1`, inactive: -2.05%; to `CCOc1ccc2nc(Cl)c(C3CC(c4ccc(C)cc4)=NN3C(=O)CCCC(=O)O)cc2c1` (stereo not drawn), inactive: 23%.
For `Cc1cccc(N2CCN(c3ncnc4onc(-c5ccc(F)cc5)c34)CC2C)c1` (stereo not drawn), the call was inactive.
Regarding `Cc1ccc2c(=O)cc(C(=O)Nc3ccc(S(=O)(=O)N4CCCCC4)cc3)oc2c1C`, the “activity change, negative = inhibition” value is inactive: 4.27%.
The same measure, in the same setting: to `COc1ccccc1Nc1nc2c(S(=O)(=O)c3ccc(C(C)C)cc3)nnn2c2ccsc12` belongs inactive: 4.74%; to `COc1ccccc1Cc1nc2ccccc2nc1SCC(=O)NCc1ccc(F)cc1`, inactive: -21.6%.
Turning to `O=C(CC(c1cccs1)N1Cc2ccccc2C1=O)Nc1ccc(Cl)cc1` (stereo not drawn), the compound was called inactive.
Take `Cc1c(-c2ccccc2)n(-c2ccc(Cl)cc2)c2nc3c(c(=O)n(C)c(=O)n3C)n12`: the “activity change, negative = inhibition” value is inactive: 7.62%.
In the case of `O=C(Cn1c(=O)n(Cc2ccc(C(=O)NCc3ccccc3Cl)cc2)c(=O)c2ccccc21)Nc1ccc(F)cc1`, the outcome was inactive.
Take `Cc1coc2cc3oc(=O)c(CC(=O)NCCc4ccccc4F)c(C)c3cc12`: the “activity change, negative = inhibition” value is inactive: 4.37%.
As for `Cc1ccc(NC(=O)CCc2nc3cccnc3n2-c2ccccc2)cc1`, the “activity change, negative = inhibition” value is inactive: 1.72%.
Same read-out and setting: the value for `Cc1cc(C)c2oc(-c3ccc(NC(=O)c4cc(Br)ccc4Cl)cc3)nc2c1` was inactive: 5.95%; that for `O=C(c1ccccc1Cl)n1nc(-c2ccco2)nc1NCc1cccs1` was inactive: 1.72%.
For the compound `CCOc1cc2ncc(C#N)c(Nc3ccc(F)c(Cl)c3)c2cc1NC(=O)C=CCN(C)C`, the “activity change, negative = inhibition” value was inactive: -2.34%.
Still for that read-out and setting: the value for `Cc1nc2cnc3ccc(C#Cc4cccnc4)cc3c2n1-c1ccc(C(C)(C)C#N)cc1` was inactive: -11.9%; that for `CCc1ccc(S(=O)(=O)NCCc2cn3ccsc3n2)cc1` was inactive: 8.83%; that for `CC(=O)N1CCCc2cc(S(=O)(=O)N(C)CC(=O)Nc3cccc(Cl)c3C)ccc21` was inactive: -0.713%.
Still for that read-out and setting: the value for `Cn1c(=O)c2cc(S(=O)(=O)NC(Cc3ccccc3)C(=O)Nc3ccc(F)cc3)ccc2n(C)c1=O` (stereo not drawn) was inactive: 7.64%.
Same read-out and setting: the value for `COc1ccc(OC)c(CCNc2ncnc3onc(-c4ccc(Cl)cc4)c23)c1` was inactive: 48.1%.
As for `CCCCC(=O)N1c2ccccc2C(C)(c2ccccc2)CC1(C)C` (stereo not drawn), the call was inactive.
Consider `Cc1cccc(CNC(=O)c2cnc3c(-c4cccc(C)c4)c(C)nn3c2C)c1`, for which the “activity change, negative = inhibition” value was inactive: -2.76%.
With `Cc1nc(-n2nc(C)c(Cc3ccc(Cl)cc3)c2C)sc1C(=O)N1CCC(C)CC1`, the compound was classed as inactive.
`Cc1ccc(NC(=O)CSc2nc3c(oc4ccccc43)c(=O)n2Cc2ccco2)cc1F`: the result was inactive.
On the same count and under the same terms, the value for `Cc1ccc(N2CCN(C(=O)c3c(C)oc4ncn(C)c(=O)c34)CC2)c(C)c1` was “inactive”.
For `CCOC(=O)c1ccc(CN(Cc2ccc(F)cc2)S(=O)(=O)c2ccc(F)c(C(=O)Nc3cc(Cl)ccc3OC)c2)cc1`, the “activity change, negative = inhibition” value is inactive: -1.07%.
As for `Cc1ccccc1Cn1c2ccccc2c2cnn(CC(=O)NCc3cccc(Cl)c3)c(=O)c21`, the “activity change, negative = inhibition” value is inactive: -8.37%.
On to `CCN(CC)c1ccc(NC(=O)COCc2cc(-c3ccc4c(c3)OCO4)on2)c(C)c1`, for which the call was inactive.
Consider `Cn1cc(-c2cc3n(n2)CCC(=O)N3CCCC(=O)Nc2ccc(Cl)cc2)c2ccccc21`, for which the “activity change, negative = inhibition” value is inactive: 1.64%.
For `CC(C)c1ccc(OCC(=O)Nc2ccc(S(=O)(=O)Nc3ncccn3)cc2)cc1`, the “activity change, negative = inhibition” value is inactive: -23.3%.
As for `COc1ccc(CNC(=O)c2cc3c(=O)n(Cc4ccco4)ccc3nc2C)c(OC)c1`, the compound was classed as inactive.
